Reference: the supplement of paper PMC12217912
The list shows a part of the results. Sequences were assembled here from the parent chain. Values near 0.05 are background.

B1: TEV protease; numbered along this chain (parent)
chain: MGESLFKGPRDYNPISSSICHLTNESDGHTTSLYGIGFGPFIITNKHLFRRNNGTLVVQSLHGVFKVKDTTTLQQHLVDGRDMIIIRMPKDFPPFPQKLKFREPQREERICLVTTNFQTKSMSSMVSDTSCTFPSGDGIFWKHWIQTKDGQCGSPLVSTRDGFIVGIHSASNFTNTNNYFTSVPKNFMELLTNQEAQQWVSGWRLNADSVLWGGHKVFMVKPEEPFQPVKEATQL

Variants of: B1
Test: raw area under fraction-flipped curve 0-4 h after induction (AUC4h, not background-subtracted), DNA-recorder readout of cleavage of the substrate (dimensionless); higher = more cleavage of the substrate by the protease variant
Settings: temperature: 34 °C; time window: 0-4 h after rhamnose induction
Description: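 In vivo DNA recorder in E. coli TOP10(DE3) ΔrhaA at 34 °C. Each TEVp single-site mutant (parent TEVp 0) is paired with a single-site variant of the 7-mer TEVs (canonical ENLYFQ|S). The substrate sits between flexible linkers in a Bxb1-sfGFP-TEVs-SsrA fusion, so cleavage stabilises Bxb1 and speeds flipping of a recombination array, read by NGS. The value is the raw area under the fraction-flipped curve over 0-4 h after rhamnose induction (AUC4h), with ≥20 reads per time point. It is not background-subtracted; inactive controls average about 0.047.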
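Further: Bxb1 expression induced with 0.2% (w/v) L-rhamnose at OD600 near 0.5, cultures sampled hourly, flipped fraction per protease–substrate barcode pair counted by paired-end Illumina sequencing.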

Variant | area with substrate ENLYFQC | area with substrate ENLYFQD | area with substrate ENLYFQG | area with substrate ENLYFQI | area with substrate ENLYFQK | area with substrate ENLYFQM | area with substrate ENLYFQN | area with substrate ENLYFQP | area with substrate ENLYFQR | area with substrate ENLYFQS | area with substrate ENLYFQT | area with substrate ENLYFQV | area with substrate ENLYFQW | area with substrate ENLYFQY | area with substrate ENLYFQH | area with substrate ENLYFQL | area with substrate ENLYFQF | area with substrate ENLYFQQ | area with substrate ENLYFQE
Q194T | 0.138 | 0.073 | 0.112 | 0.0559 | 0.0854 | 0.139 | 0.0673 | 0.0463 | 0.0486 | 0.11 | 0.0705 | 0.0753 | 0.0763 | 0.08 |  |  |  |  | 
D161R | 0.0885 | 0.0555 | 0.0612 | 0.0651 | 0.064 | 0.0803 | 0.0571 | 0.0627 | 0.0524 | 0.0657 | 0.0645 |  | 0.0507 | 0.0673 | 0.0554 | 0.0459 |  |  | 
D161S | 0.086 |  |  | 0.0711 | 0.0658 | 0.0728 | 0.05 |  | 0.0597 | 0.0823 |  | 0.0489 | 0.0544 | 0.0634 | 0.0523 | 0.0561 |  |  | 
L211H | 0.129 |  |  | 0.0546 |  | 0.0878 |  | 0.0929 | 0.0617 | 0.112 |  |  |  |  |  | 0.0532 | 0.0835 |  | 
L211P | 0.0986 | 0.0676 |  |  |  |  | 0.0749 |  |  | 0.0767 |  | 0.0561 | 0.0664 |  |  |  |  | 0.0635 | 
V165A | 0.0514 |  | 0.0521 | 0.0307 |  | 0.0664 | 0.0545 | 0.0452 |  | 0.054 |  | 0.0585 |  |  |  |  |  | 0.0487 | 
N172E | 0.0667 |  |  | 0.0629 | 0.0869 |  | 0.0697 |  |  | 0.0657 | 0.0732 |  |  |  | 0.0731 | 0.0618 |  | 0.056 | 
S209F | 0.119 | 0.1 | 0.103 | 0.0639 | 0.0668 | 0.0881 | 0.0997 | 0.0577 |  | 0.11 | 0.0673 | 0.0732 | 0.0625 | 0.0863 |  | 0.0607 | 0.0898 |  | 0.0578
A196K | 0.118 | 0.0432 | 0.0859 | 0.0642 | 0.0718 | 0.0975 | 0.0796 | 0.0672 | 0.0646 | 0.106 | 0.0676 | 0.0736 | 0.0732 | 0.0721 | 0.082 | 0.0657 | 0.0746 | 0.0664 | 
S130D | 0.0869 |  | 0.0869 | 0.0731 | 0.0758 |  |  |  |  | 0.0921 |  |  |  | 0.0726 | 0.0698 | 0.0808 |  |  | 
W141C | 0.0612 |  |  | 0.0725 | 0.0659 | 0.0579 |  | 0.0613 | 0.063 | 0.0669 | 0.0912 | 0.0622 | 0.0557 | 0.0565 |  | 0.055 |  |  | 
I167Y | 0.092 | 0.0501 |  |  | 0.0634 | 0.068 | 0.0612 |  | 0.0653 | 0.0736 |  |  | 0.0518 | 0.0388 |  | 0.0487 | 0.0465 |  | 0.0594
L190R | 0.0819 |  | 0.0953 | 0.0741 | 0.0751 | 0.0682 | 0.0677 |  | 0.0631 | 0.0907 | 0.0643 | 0.0756 | 0.0591 |  | 0.0715 | 0.0723 |  | 0.0689 | 0.0371
K230F | 0.102 |  |  |  | 0.0603 |  | 0.0719 |  |  | 0.0954 | 0.0656 | 0.0611 | 0.0553 | 0.0861 |  | 0.0595 | 0.076 |  | 
N186P | 0.0671 |  |  | 0.0556 | 0.0514 |  | 0.0596 | 0.0734 |  | 0.08 | 0.0517 | 0.0348 | 0.0558 | 0.0668 |  | 0.0559 |  |  | 
P155V | 0.0943 | 0.073 |  | 0.0511 | 0.0604 | 0.0695 | 0.105 |  | 0.0763 | 0.0892 | 0.059 | 0.0569 | 0.0583 |  | 0.0594 | 0.0482 |  |  | 0.0574
P155H | 0.0527 | 0.0527 |  | 0.0709 | 0.0462 |  | 0.0224 | 0.0531 | 0.0582 | 0.0518 | 0.0393 | 0.0521 | 0.0363 |  |  | 0.0639 |  | 0.0493 | 0.0547
Q198D | 0.111 | 0.0753 |  | 0.059 |  | 0.0826 | 0.0756 |  | 0.0601 | 0.0968 | 0.0612 | 0.0611 | 0.0675 |  | 0.0799 |  | 0.0957 | 0.111 | 
Q198W | 0.0735 | 0.0692 | 0.0915 |  | 0.0672 |  | 0.0494 | 0.0588 | 0.0565 | 0.0768 | 0.0592 |  | 0.0571 | 0.0817 | 0.0742 | 0.0587 | 0.0666 |  | 
T132Q | 0.0876 |  | 0.0759 |  | 0.0384 | 0.0541 |  |  | 0.0537 | 0.0804 | 0.0644 |  | 0.0758 |  | 0.0632 | 0.0542 |  |  | 
I164N | 0.0366 | 0.0489 |  | 0.093 | 0.0583 |  |  | 0.0508 | 0.0506 | 0.0529 | 0.0568 |  | 0.0554 | 0.0504 | 0.0591 | 0.0536 |  |  | 0.0688
I164M | 0.0855 | 0.0728 | 0.0859 | 0.0625 | 0.056 | 0.0626 | 0.0649 | 0.0534 | 0.069 | 0.0784 | 0.061 | 0.0589 | 0.0547 | 0.0615 | 0.0531 | 0.0498 | 0.0658 | 0.0743 | 
V220C | 0.134 | 0.101 | 0.0925 | 0.0631 | 0.0845 |  | 0.0689 | 0.05 | 0.049 | 0.111 |  |  | 0.0885 | 0.0693 | 0.0709 | 0.0552 | 0.0741 | 0.0584 | 
V210L | 0.0949 |  | 0.112 | 0.0611 | 0.0518 | 0.0737 |  |  | 0.0704 | 0.096 | 0.0427 | 0.0599 | 0.0566 | 0.0752 | 0.0634 |  | 0.0521 |  | 0.0691
F180G | 0.0953 |  |  |  | 0.0608 | 0.0644 | 0.0557 |  | 0.0497 | 0.0751 | 0.0535 |  | 0.0549 | 0.0318 | 0.0454 | 0.0591 |  |  | 
F180W | 0.111 | 0.0593 | 0.0749 | 0.056 | 0.0515 |  |  |  | 0.0565 | 0.0866 | 0.0645 | 0.05 |  | 0.0442 |  | 0.0505 |  | 0.0596 | 0.0537
L191D | 0.0736 |  |  | 0.0617 | 0.0616 | 0.0531 |  |  | 0.0431 | 0.0592 | 0.0544 |  | 0.0541 |  | 0.0504 | 0.0386 | 0.0479 |  | 
G136Y | 0.0615 | 0.0788 | 0.112 | 0.0582 | 0.0775 | 0.0928 |  |  | 0.0585 | 0.0998 |  | 0.0625 | 0.0781 |  |  | 0.0622 | 0.077 | 0.0711 | 
